Experimental data published in article PMC1282572, “Avidin related protein 2 shows unique structural and functional features among the avidin protein family” (BMC Biotechnology, 2005).

Molecular target: the molecule itself
Experiment: SEC; FPLC gel filtration, Superdex HR 10/30 column, 50 mM NaCO3 (pH 11.0), 150 mM NaCl; calibrated with IgG, BSA and ovalbumin; oligomeric state (tetramer)

B1: Avidin mutant K111I, produced in insect cells (natural protein, chicken, UniProt P02701 25-152, looked up)
chain: ARKCSLTGKWTNDLGSNMTIGAVNSRGEFTGTYITAVTATSNEIKESPLHGTQNTINKRTQPTFGFTVNWKFSESTTVFTGQCFIDRNGKEVLKTMWLLRSSVNDIGDDWIATRVGINIFTRLRTQKE
notes: avidin, chicken, with K111I; An E. coli form, AVD(K111I)-b, was also made; also called AVD(K111I)
stoichiometry N: 4
